Reference: PubChem BioAssay AID1645887 (National Center for Advancing Translational Sciences (NCATS), 2021)
Values joined by “and” are separate entries in the source; they are usually repeats but may differ in a detail not shown here. Equal values may be shown once. Out of some 16,000 compounds screened, about 40 (0.2%) were called active. Not shown: some 1% with an inconclusive outcome. Calls follow the shape of the dose curve; as a rule, active = well fitted activation curve with a large enough effect; inconclusive = small, poorly fitted or top-dose-only effect, or another doubt; inactive = no such curve, though single readings can be large or run the other way. This is one part of the list.

Molecular target: Rap guanine nucleotide exchange factor 4 (Homo sapiens) (UniProt Q8WZA2)
Test: Validation qHTS for agonist of cAMP-regulated guanine nucleotide exchange factor 4 (EPAC2);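 also: exchange makes BODIPY-GDP fluorescence drop when released from Rap1B; series mostly up to about 150 µM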
Details: EPAC2 Rap1B BODIPY-GDP exchange, fluorescence; activation: hits give high values
Procedure, shortened: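 Signal normalized against 6.5 mM cAMP as agonist control. Mix of EPAC2 (100 nM), RAP1B-BODIPY-GDP (250 nM) and GDP (50 uM) was read kinetically at 480/540 nm, every 5 min over 30 min, after 5 min room-temperature incubation with compound.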
% is scaled to controls: 0 for no effect and ±100 for the full control effect.

Sequence of UniProt Q8WZA2 (Q8WZA2 whole entry, looked up): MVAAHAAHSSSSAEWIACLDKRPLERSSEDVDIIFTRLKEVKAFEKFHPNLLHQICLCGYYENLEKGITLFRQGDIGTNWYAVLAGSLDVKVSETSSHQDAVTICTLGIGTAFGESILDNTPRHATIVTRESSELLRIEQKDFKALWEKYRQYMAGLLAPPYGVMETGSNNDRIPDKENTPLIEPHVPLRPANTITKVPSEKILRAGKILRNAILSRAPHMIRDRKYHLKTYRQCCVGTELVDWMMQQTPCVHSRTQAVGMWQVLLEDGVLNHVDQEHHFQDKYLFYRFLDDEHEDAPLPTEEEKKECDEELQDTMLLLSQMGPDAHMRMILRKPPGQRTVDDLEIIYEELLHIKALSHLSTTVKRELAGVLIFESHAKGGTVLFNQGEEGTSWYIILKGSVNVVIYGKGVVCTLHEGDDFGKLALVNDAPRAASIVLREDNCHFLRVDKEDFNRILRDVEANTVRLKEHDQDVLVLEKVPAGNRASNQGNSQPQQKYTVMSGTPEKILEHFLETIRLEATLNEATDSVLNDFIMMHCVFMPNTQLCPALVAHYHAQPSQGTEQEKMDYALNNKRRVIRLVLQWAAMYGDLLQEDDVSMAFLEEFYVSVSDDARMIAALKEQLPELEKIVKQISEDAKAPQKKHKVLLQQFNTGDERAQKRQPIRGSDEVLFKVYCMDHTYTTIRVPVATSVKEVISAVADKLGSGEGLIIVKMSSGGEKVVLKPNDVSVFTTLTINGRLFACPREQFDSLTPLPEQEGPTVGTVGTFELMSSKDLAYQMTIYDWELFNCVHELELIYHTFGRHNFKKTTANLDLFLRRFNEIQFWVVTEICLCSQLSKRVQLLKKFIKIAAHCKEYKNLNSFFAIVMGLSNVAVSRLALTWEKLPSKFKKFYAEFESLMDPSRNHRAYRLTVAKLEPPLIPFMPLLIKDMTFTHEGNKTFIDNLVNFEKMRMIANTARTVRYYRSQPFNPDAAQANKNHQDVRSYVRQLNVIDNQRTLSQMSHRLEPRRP

activation, inactive:
COCCCOc1ccnc(CS(=O)c2nc3ccccc3[nH]2)c1C (configuration not stated) -4.55%
CCOC(=O)N1CCN(Cc2ccc3c(c2)CN(C(=O)c2ccc(C#CC(C)(C)O)o2)CCO3)CC1 -4.84%
CC(=O)N=c1sc(S(N)(=O)=O)nn1C -7.49% and -3.33%
O=c1cnc2cnc(Oc3ccccc3)nc2n1C[C@H]1CCCO1 -1.55%
Cc1ncc2c(c1CNC(=O)CN1CCCCC1)CCN(C(=O)c1ccc(F)cc1Cl)C2 -1.78%
CCC1OC(=O)C(C)[C@@H](O[C@H]2C[C@@](C)(OC)C(O)C(C)O2)C(C)[C@@H](O[C@@H]2OC(C)CC(N(C)C)C2O)[C@](C)(O)CC(C)/C(=N\OCOCCOC)[C@H](C)C(O)[C@]1(C)O (some centres not stated) -5.05%
COc1ccccc1CC(=O)NCC1Cc2cc(F)cc(-c3cncnc3)c2O1 (configuration not stated) -2.32%
COc1ccccc1-c1ccnc(-n2ncc(C(=O)N[C@H]3CCCCNC3=O)c2C2CC2)n1 -7.53%
CC(=O)N1CCC2(CC1)CCN(c1ccc(-c3ccccc3)cc1)CC2 -12.3%
c1cncc(-c2nccc(-n3ccnc3)n2)c1 -10.7%
Cc1ncc2c(c1CNC(=O)c1cncs1)CCN(C(=O)c1ccc(-c3ccccc3)cc1)C2 6.95%
CC1(COc2ccc(CC3SC(=O)NC3=O)cc2)CCCCC1 (configuration not stated) -31.7% and -7.95%
COc1ccc2c(c1)NC(=O)C2CC(=O)N1CCOc2c(cc(-c3cnc4ccccc4c3)cc2OC)C1 (configuration not stated) -12.4%
CC(CNC(=O)c1cccnc1)NC(=O)c1cccnc1 (configuration not stated) -6.69%
CC(C)C1=CC2=CCC3[C@@](C)(CCC[C@@]3(C)C(=O)O)C2CC1 (some centres not stated) -18.3%
O=C(C[n+]1ccccc1Cl)c1cccc([N+](=O)[O-])c1 3.13%
CC(C)SC(=N)N -9.4%
CC(C)CN1CCC(=O)N([C@H](CO)c2ccccc2)CC1 -27.1%
COc1ccc2[nH]cc(CCNc3cc(-c4ccccc4OC)ncn3)c2c1 9.65%
Cc1noc(C)c1-c1ccc2ncnc(NCc3cccnc3)c2c1 -6.34%
O=c1c(-c2cc(F)cc(F)c2)nc2cncnc2n1Cc1ccccc1 -2.9%
CC[C@]12CCCN3CCc4c(n(c5ccccc45)C(=O)C1)[C@H]32 -1.18%
CS(=O)(=O)N1CCC2(CC1)CN(c1ccncc1)C2 -5.96%
O=C(O)CCC(=O)c1ccc(-c2ccccc2)cc1 0.806% and 7.99%
COc1cc(=O)n2c(c1C(=O)NC(C)c1ccco1)CCN(Cc1ccc3nsnc3c1)CC2 (configuration not stated) -5.03%
CCNc1ncc2nc(-c3cc(F)cc(F)c3)c(=O)n(C)c2n1 -15.9%
COc1ccc(CN2Cc3cccc4c3[C@@H](CC2=O)[C@H](O)[C@H](O)C4)cc1 -11.8%
Cc1ccc(C2(O)CCN(CCCC(=O)c3ccc(F)cc3)CC2)cc1 -13.8%
COc1ccc(/C=C/C(=O)O)cc1 -15.7%
COc1ccc(-c2coc3cc(O)ccc3c2=O)c(OC)c1 -12.6%
O=C(c1cnccn1)N1CCC2(CC1)CN(c1cccc(-c3ccccc3)c1)C2 -12.6%
Cc1cc(-c2cc(F)cc3c2OC(CNC(=O)CCn2cncn2)C3)ccc1F (configuration not stated) 3.89%
COc1ccc(C(=O)N2CCC[C@@]3(CCN(c4ccncc4)C3)C2)cc1 -3.22%
N[C@@H](Cc1ccc(O)c(O)c1)C(=O)O -8.02% and -36.6%
O=C1NC2CCCCN2C12CCN(CCCN1c3ccccc3CCc3ccc(Cl)cc31)CC2 (configuration not stated) -12.9%
CC(=O)Nc1cc(C(=O)N2CCCC(C)C2)cc2ncn(CCc3ccccn3)c12 (configuration not stated) -14.3%
C[C@@H]1[C@H](c2ccccc2)OCCS(=O)(=O)N1Cc1ccccc1F -33.6%
CCCCc1ncc(/C=C(\Cc2cccs2)C(=O)O)n1Cc1ccc(C(=O)O)cc1 -7.29%
CCC(C)C(NC)C(=O)O (configuration not stated) -5.09%
O=C1NC(=O)C(Cc2ccccc2F)(C2CCN(Cc3cccn3-c3cccnc3)CC2)N1 (configuration not stated) 4.58%
[N-]=[N+]=Nc1nc2c(N)ncnc2n1C1OC(CO)C(O)C1O (configuration not stated) 4.18%
CN1CCN2c3ccccc3Cc3ccccc3C2C1 (configuration not stated) -11.6% and -18.1% and -3.85%
COC1OC2COC(c3ccccc3)OC2C(O)C1O (configuration not stated) 11.4%
CN(C)C(=O)c1ccc(-c2ccc3ncnc(N4CCC(C(=O)O)CC4)c3c2)cc1 -10.4%
O=C(c1ccco1)N1CCC[C@@]2(CCN(C(c3ccccc3)c3ccccc3)C2)C1 -23.6%
CN(C)C(=O)CCC(=O)NCC1Cc2cccc(-c3ccccc3C(F)(F)F)c2O1 (configuration not stated) -9.97%
COc1ccc(C(=O)N2CCC3(CCCN(C(=O)Nc4cccc(F)c4)C3)CC2)cc1 -8.61%
CCCCCCCCOc1ccccc1C(=O)Nc1ccc(C(=O)OCC[N+](C)(CC)CC)cc1 3.73%
COCc1c(C(=O)NC2CCCCCC2)cnn1-c1nccc(-c2cc(C)sc2C)n1 -0.549%
C[C@H](CCC(=O)O)[C@H]1CC[C@H]2[C@@H]3C(=O)C[C@@H]4CC(=O)CC[C@]4(C)[C@H]3CC(=O)[C@]12C -16.8%
COc1cccc(Nc2ncc3nc(CCc4ccccc4)c(=O)n(C)c3n2)c1 -21.6%
CO[C@H]1C[C@H](O[C@@H]2/C(C)=C/C[C@@H]3C[C@@H](C[C@]4(CC[C@H](C)[C@@H](C5CCCCC5)O4)O3)OC(=O)[C@@H]3C=C(C)/C(=N/O)[C@H]4OC/C(=C\C=C\[C@@H]2C)[C@]43O)O[C@@H](C)[C@@H]1O -41.8%
Cc1nc2sccn2c(=O)c1CCN1CCC(=C(c2ccc(F)cc2)c2ccc(F)cc2)CC1 -20.1% and -32.1%
Cc1cnc(CNc2ncnc3ccc(-c4c(C)noc4C)cc23)cn1 -2.53%
COCCNc1ncnc2ccc(-c3ccccc3OC)cc12 0.31%
Cc1noc(C)c1C(=O)N1CCC2(CCCN(c3ccccn3)C2)CC1 3.87%
COCC(=O)N1CCC[C@@]2(CCN(Cc3ccccc3OC)C2)C1 -8.16%
CN(C)c1ncc2ncc(=O)n(C[C@H]3CCCO3)c2n1 -12.3%
COc1cc(O)c(C(=O)O)c(O)c1 -10.1%
O=C(NCCc1nnc2n1CCN(Cc1c(F)cccc1F)CC2)c1ccco1 -16.8%
CC(=O)[C@H]1CC[C@H]2[C@@H]3C=CC4=CC(=O)CC[C@@]4(C)[C@H]3CC[C@]12C -22.5%
CCOC(=O)C1=C(C)NC(C)=C(C(=O)OC)C1c1cccc(Cl)c1Cl (configuration not stated) 19.6% and -14%
O=C(Nc1ccccc1)N[C@H]1C[C@H](C(=O)O)Nc2cc(Cl)cc(Cl)c21 -16.4%
Cc1ccnc2c(O)cccc12 -23.5%
O=C1c2c(O)ccc(O)c2C(=O)c2c(NCCNCCO)ccc(NCCNCCO)c21 6.63% and -15.7% and -34.9%
COc1cc(CN2C(=O)CC[C@@H]3CN(Cc4ccccn4)CC[C@@H]32)cc(OC)c1OC -2.22%
Cc1[nH]c2ccccc2c1/C=C/c1ccc2ccccc2n1 -18.8%
N#Cc1cccc(NC(=O)N2CCC3(CC2)CCN(C(=O)c2csnn2)CC3)c1 -25.9%
CC(=O)O[C@H]1C[C@@H]2CC[C@@H]3[C@H](CC[C@@]4(C)[C@H]3C[C@H]([N+]3(C)CCCCC3)[C@@H]4OC(C)=O)[C@@]2(C)C[C@@H]1[N+]1(C)CCCCC1 -27.8% and -30.4%
COCCn1c(=O)c(-c2ccccc2)nc2cnc(N3CCNCC3)nc21 -4.76%
CC(C(=O)O)c1ccc(C2CCCCC2)c2ccccc12 (configuration not stated) -0.78%
CN(C)c1ccc(/C=C/c2ccnc3c2ccc2ccccc23)cc1 -10%
Cc1cc(-c2ccnc(-n3ncc(C(=O)NCc4cccnc4)c3C3CC3)n2)c(C)s1 -10.3%
C[C@H](CCC(=O)NCC(=O)O)C1CC[C@H]2[C@H]3C(C[C@H](O)[C@]12C)[C@@]1(C)CC[C@@H](O)C[C@H]1C[C@H]3O (some centres not stated) 10.5%
CC(=O)Nc1ccccc1C(=O)C(=O)O -17.9%
Fc1ccc([C@H]2CCNCC2COc2ccc3c(c2)OCO3)cc1 (some centres not stated) -29.3%
CC(=O)Nc1ccc(OC[C@@H](O)CNC(C)C)cc1 -18.2%
CC(CC(O)C1OC1(C)C)C1CCC2(C)C3=CCC4C(C)(C)C(=O)CCC4(C)C3CC[C@@]12C (some centres not stated) -23.1%
O=C(NC(Cc1cc(=O)[nH]c2ccccc12)C(=O)O)c1ccc(Cl)cc1 (configuration not stated) -10.6%
COc1cc(O)cc(OC)c1OC -2.65%
CCN1C(=O)C=CC1=O -9.63%
COc1cc2nc(N(C)C)c(CNC3CCOC(C)(C)C3)cc2c(OC)c1OC (configuration not stated) -8.17%
